From PubChem BioAssay AID1346428 (National Center for Advancing Translational Sciences (NCATS), 2018)
In all, about 48,000 compounds went through this assay and about 1,200 (2.5%) were called active. Not shown: some 2% with an inconclusive outcome.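 Rule for the calls: active = activation of at least 60% and not above a set upper limit (about 1 call in 100 departs from these limits); inconclusive = activation of 40% to 60%, or above that upper limit; inactive = activation under 40%.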 The list shows a part of the results.

Biological target: Probable G-protein coupled receptor 32 (Homo sapiens) (UniProt O75388)
Test: qHTS for Agonists of Human Resolvin D1 Receptor DRV1; note: 0% is about no effect
Settings: CHO-K1 GPR32 beta-arrestin PathHunter luminescence, 90 min; at 76.9 µM; active compounds read high; zero percent set by DMSO-only wells
How it was run: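 Agonism was scored by beta-Gal fragment complementation (chemiluminescent read, 1 h detection at ambient temperature) reporting beta-arrestin binding to GPR32 in engineered CHO-K1 cells. Compound treatment lasted 90 min at 37 C, normalized to a DMSO basal control.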

Sequence of UniProt O75388 (O75388 whole entry, looked up): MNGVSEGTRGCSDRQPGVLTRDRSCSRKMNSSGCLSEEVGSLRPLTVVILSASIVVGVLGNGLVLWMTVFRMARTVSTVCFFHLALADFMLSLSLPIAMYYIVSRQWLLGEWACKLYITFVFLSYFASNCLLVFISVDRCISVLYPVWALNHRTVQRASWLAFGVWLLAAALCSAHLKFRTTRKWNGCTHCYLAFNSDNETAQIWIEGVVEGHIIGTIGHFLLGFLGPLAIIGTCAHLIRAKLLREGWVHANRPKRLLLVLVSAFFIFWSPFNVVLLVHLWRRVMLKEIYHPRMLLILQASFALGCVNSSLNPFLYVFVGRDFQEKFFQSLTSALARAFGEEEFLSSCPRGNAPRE

Q: How did the activation turn out when `Cc1cc(-c2ccc(C)c(S(=O)(=O)N3c4ccccc4CC3C)c2)on1` (configuration not stated) was run?
A: inactive: -22.8%

Q: For `Cc1nn(C)c2c1c(C(F)(F)F)cc(=O)n2CC(=O)N1CCN(c2ccccc2F)CC1`, which activation is on record?
A: inactive: -8.2%

Q: For `CC(=O)N1CCc2c(sc3c2c(=O)n(-c2cccc(Cl)c2)c(=O)n3Cc2ccc(F)cc2Cl)C1`, which activation is on record?
A: inactive: -15%

Q: For `O=C(O)CSc1nnc(-c2ccc(O)cc2)o1`, which activation is on record?
A: inactive: 11.5%

Q: For `CCOC(=O)c1noc2nc(C)n(CC(=O)Nc3ccc(OC)c(Cl)c3)c(=O)c12`, which activation is on record?
A: inactive: 22.8%

Q: Which activation does the source give for `Cc1cc(N2CCC(C(=O)Nc3ccc(Cl)cc3)CC2)n2nc(C)c(-c3ccc(Cl)cc3)c2n1` here?
A: inactive: -18.7%

Q: For `Cc1ccc(CC(=O)Nc2c(C(=O)N3CCN(c4ccccc4)CC3)oc3ccccc23)cc1`, which activation is on record?
A: inactive: -26.6%

Q: How did the activation turn out when `CCOC(=O)CSc1nnc2n(-c3ccccc3)c(=O)c3c4c(sc3n12)COC(C(C)C)C4` (configuration not stated) was run?
A: inactive: 27.1%

Q: With `CCCCN(CC)CCNC(=O)C1CCN(c2nnc(C)c3c(C)n(-c4ccc(C)cc4)nc23)CC1` as the compound, how does the activation read?
A: inactive: -16.3%

Q: How did the activation turn out when `Cc1ccc(Cc2c(C)nc3c(-c4ccccc4)c(C)[nH]n3c2=O)cc1` was run?
A: inactive: -16.3%

Q: How did the activation turn out when `CCc1c(C)nc2nncn2c1NCc1ccc(OC)cc1` was run?
A: inactive: 29.1%

Q: With `Cc1cc2c(cc3c(=O)n(CC(=O)NCc4ccccc4Br)ncn32)s1` as the compound, how does the activation read?
A: inactive: -5.92%

Q: `Cc1ccc(-n2nc(C)c3c(C(=O)O)cc(C)nc32)cc1` was tested. Which activation did it give?
A: inactive: 1.48%

Q: How did the activation turn out when `COC(=O)Cc1c(C)c2cc3c(c(C)c2oc1=O)OCN(CCc1ccc(OC)cc1)C3` was run?
A: inactive: -25.2%

Q: `CCN(CCN(C)C)C(=O)C1CCN(S(=O)(=O)c2c(C)noc2/C=C/c2ccccc2F)CC1` was tested. Which activation did it give?
A: inactive: -18.9%

Q: For `Cc1cc(C)c2c(n1)SCCN2C(=O)Nc1ccc(C(=O)Nc2ccc(C(C)C)cc2)cc1`, which activation is on record?
A: inactive: -1.36%

Q: How did the activation turn out when `CCN(CC)c1ccc2cc(-c3nc(-c4cc(OC)c(OC)c(OC)c4)no3)c(=O)oc2c1` was run?
A: inactive: -2.7%

Q: With `CCCOC(=O)c1ccc(O)cc1` as the compound, how does the activation read?
A: inactive: 34.1%

Q: Which activation does the source give for `Cc1cc(C)c(NC(=O)Cn2nnc(-c3nc(-c4ccccc4)no3)c2N)c(C)c1` here?
A: inactive: -8.88%

Q: How did the activation turn out when `COc1cc2cc(CNc3ccccc3)c(=O)n(CC(=O)Nc3cc(C)cc(C)c3)c2cc1OC` was run?
A: inactive: -6.45%

Q: `O=C(CCC1N=C2c3ccccc3N=C(SCc3ccc(F)cc3)N2C1=O)NC1CCCCC1` (configuration not stated) was tested. Which activation did it give?
A: inactive: -39.7%

Q: `CC(=O)c1ccc(NC(=O)c2nc3nc(C)cc(C(F)F)n3n2)cc1` was tested. Which activation did it give?
A: inactive: 13.6%

Q: Which activation does the source give for `CCOc1ccc(-n2nc(CO)c(C(=O)NCc3cccc(OC)c3)n2)cc1` here?
A: inactive: -5.21%

Q: `Cc1cc(C)cc(-n2ccn(CC(=O)Nc3ccccc3F)c(=O)c2=O)c1` was tested. Which activation did it give?
A: inactive: -14.4%

Q: For `Cc1ccc(C)c(NC(=O)C(c2ccccc2)N2Cc3ccccc3C2=O)c1` (configuration not stated), which activation is on record?
A: inactive: -12.1%

Q: `COc1ccc(-c2cc(=O)oc3c4c(ccc23)OCN(Cc2cccc(OC)c2)C4)cc1` was tested. Which activation did it give?
A: inactive: 39.3%

Q: Which activation does the source give for `COC(=O)c1ccccc1NC(=O)Cn1c(=O)n(CCCC(=O)NCc2ccccc2OC)c(=O)c2ccccc21` here?
A: inactive: -3.42%

Q: `CSc1ncc(C(=O)Nc2cc(Cl)ccc2C)c(-c2ccccc2)n1` was tested. Which activation did it give?
A: inactive: -2.14%

Q: Which activation does the source give for `CC(=O)N1CCCc2cc(S(=O)(=O)N3CCN(c4cccc(C(F)(F)F)c4)CC3)ccc21` here?
A: inactive: -23.6%

Q: How did the activation turn out when `COc1ccccc1NC(=O)C1CCN(c2cnccn2)CC1` was run?
A: inactive: -19.4%

Q: How did the activation turn out when `Cc1ccc(-c2cc(C(F)(F)F)nn2-c2ccc(S(N)(=O)=O)cc2)cc1` was run?
A: inactive: 2.49%

Q: `Cc1ccc(NC(=O)C2CCC(CNS(=O)(=O)c3ccc4c(c3)CCCC(=O)N4)CC2)c(C)c1` (configuration not stated) was tested. Which activation did it give?
A: inactive: -17.7%

Q: How did the activation turn out when `Cc1ccccc1-c1noc(-c2cc(-c3ccc(F)cc3)n[nH]2)n1` was run?
A: inactive: -9.17%

Q: `Cc1cn2c(=O)cc(COc3ccccc3NC(=O)c3ccc(Cl)cc3)nc2s1` was tested. Which activation did it give?
A: inactive: -6.57%

Q: For `CCOC(=O)c1ccc(NC(=O)CSc2nc3c([nH]c4ccccc43)c(=O)n2C)cc1`, which activation is on record?
A: inactive: -25.8%

Q: For `Cc1cc(C)cc(NC(=O)C2CCN(S(=O)(=O)c3ccc4c(c3)oc(=O)n4C)CC2)c1`, which activation is on record?
A: inactive: 10.7%

Q: How did the activation turn out when `CCCCc1nc2ccccc2n1CC(=O)N(COCC)c1c(C)cccc1CC` was run?
A: inactive: -1.34%

Q: With `Cc1ccc2oc(-c3ccc(Cl)c(NC(=O)c4ccc(OC(C)C)cc4)c3)nc2c1` as the compound, how does the activation read?
A: inactive: -10.5%

Q: `Cc1ccc(S(=O)(=O)N(CC(=O)Nc2ccc3c(c2)OCO3)c2ccc(C)c(Cl)c2)cc1` was tested. Which activation did it give?
A: inactive: -4.62%

Q: `CC(C)c1ccc(Nc2c(-c3ccco3)nc3ccccn23)cc1` was tested. Which activation did it give?
A: inactive: -18.7%

Q: Which activation does the source give for `COc1cc(NC(=O)c2ccc(-n3cnc4cccnc43)cc2)cc(OC)c1` here?
A: inactive: 2.31%

Q: With `COc1ccc(/C=C/C(=O)Nc2ccc3nc(N4CCCCC4)cc(C)c3c2)cc1OC` as the compound, how does the activation read?
A: inactive: -24.8%

Q: How did the activation turn out when `COc1ccc(-c2noc(-c3ccc(N4CCC(C)CC4)c([N+](=O)[O-])c3)n2)cc1OC` was run?
A: inactive: 9.71%

Q: Which activation does the source give for `COc1ccc(N(CC(=O)N2CCN(c3ccc(F)cc3)CC2)S(=O)(=O)c2c(C)n[nH]c2C)cc1` here?
A: inactive: -0.337%

Q: For `O=C(NCCc1csc2nc(-c3cccc(F)c3)nn12)c1ccc(Br)o1`, which activation is on record?
A: active: 97.1%

Q: `CCOc1ccc(NC(=O)Cn2cc(S(=O)(=O)N3CCN(c4ccccc4F)CC3)c3ccccc3c2=O)cc1` was tested. Which activation did it give?
A: inactive: -1.49%

Q: With `Cc1ccc(CNC(=O)CSc2nc3n[nH]c(C)c3c(=N)n2-c2cccc(C)c2)cc1` as the compound, how does the activation read?
A: inactive: -8.48%

Q: For `CC(C)(C)c1ccc(C(=O)NC(Cc2c[nH]c3ccccc23)C(=O)OCC(=O)c2ccc(Cl)cc2)cc1` (configuration not stated), which activation is on record?
A: inactive: -12.1%

Q: How did the activation turn out when `OC(C#CCN1CCCC1)(c1ccccc1)c1ccccc1` was run?
A: inactive: -7.52%

Q: How did the activation turn out when `COc1cccc(C(=O)Nc2c3c(nn2-c2ccc(Cl)cc2)CS(=O)(=O)C3)c1` was run?
A: inactive: -6.62%

Q: For `CCc1ccc(NC(=O)CCNS(=O)(=O)c2ccc3c(c2)CCCC(=O)N3)cc1`, which activation is on record?
A: inactive: -5.41%

Q: For `Cc1ccc(CNC(=O)c2cccc(-n3cnc4cccnc43)c2)cc1`, which activation is on record?
A: inactive: 2.26%
